Measured values as given in ChEMBL document CHEMBL4888484, “Replenishing the malaria drug discovery pipeline: Screening and hit evaluation of the MMV Hit Generation Library 1 (HGL1) against asexual blood stage Plasmodium falciparum ,using a nano luciferase reporter read-out” (2022).
Hit rate of the full screen: of about 150,000 compounds, about 540 (0.36%) showed an effect of 50% or more. The list shows a part of the results.

Test system: Plasmodium falciparum
Test: Primary screen in NF54 nanoGlo assay, in single point, at 2uM, 72h; a lower Z score goes with more inhibition
Assay type: functional, Erythrocyte
Conditions: timepoint 72 hour

SMILES	% Inhibition	Z score
Cc1cc(C)cc(N2CCN(C(=O)C[C@]3(c4ccccc4C)CC(=O)N(C4CC4)C3=O)CC2=O)c1	1%	-0.18
O=C(Nc1cccc(NC(=O)C(F)(F)C(F)(F)OC(F)(F)F)n1)C(F)(F)C(F)(F)OC(F)(F)F	-1%	0.16
COc1ccnc(N2CCN(c3cccc4[nH]c(=O)[nH]c34)CC2)n1	3%	-0.49
O=C(Nc1cc(F)cc(F)c1)C1CCN(c2cc(-c3cccc(F)c3)ncn2)CC1	-16%	2.59
Cc1nc[nH]c1CN1CCN(Cc2ccoc2)[C@@H]2CS(=O)(=O)C[C@@H]21	-4%	0.64
CNC(=O)C1(N2CCC[C@H]2C(=O)N2CCCC2)COC1	-3%	0.41
Cc1nn(C)c2cc(NC(=O)N3CCC(C(C)(C)CN)CC3)ccc12	-11%	1.25
CNC1(c2nnnn2-c2cccc(C)c2)CCCC1	-9%	1.28
CCc1ccc([C@@H]2CN(C(=O)NCCc3ccnn3C)CCO2)cc1	2%	-0.22
Cn1c(Cn2cccc(C(F)(F)F)c2=O)nc2ccccc21	-5%	0.78
CN(C)CC[C@H](NC(=O)c1ccc(NS(=O)(=O)C(F)(F)F)cc1)C(C)(C)C	-4%	0.37
O=C(c1ccccc1OCC1CC1)N1CC[C@]2(CCOC2)C1	-4%	0.48
Cc1cc(-c2nc(-c3ccc(F)cc3)no2)c(C)n1CC(=O)NCC(C)C	-10%	2.01
CCOC(=O)c1ncn(CCOC)c1N	4%	-0.49
O=C1NC[C@@H]2CCC[C@@H](CCOc3ccccc3C(=O)N3CCN(Cc4ccc5c(c4)OCO5)C[C@@H]13)O2	-11%	1.41
NC(=O)NCc1cn(C2CCN(C(=O)C3CCCCCC3)CC2)nn1	-6%	1.21
Cc1nccn1CC(=O)N1CCC[C@@]2(CCC(=O)N(Cc3cccnc3)C2)C1	3%	-0.35
CC(C)=CCC[C@H](C)N1CCC(=O)N(Cc2ccccn2)CC1	3%	-0.43
CN(C[C@H]1COc2ccccc2O1)C(=O)c1ccc(N(C)C)cc1	-3%	0.37
CCOc1ncccc1CN[C@H]1CCCN(CC)C1	-10%	1.15
O=C(NC1CC(O)C(CO)C1)c1cc2ccccc2o1 (stereo not drawn)	-9%	1.45
CONC(=O)C=Cc1ccc2c(c1)CCCN2C	-13%	1.75
O=C(Cn1ccnn1)N[C@H]1C[C@@H](c2cc(N3CC[C@H](O)C3)ncn2)C1	0%	0.01
CN1C(=O)N(c2ccsc2)C(=O)C1(C)C	-7%	1.27
O=C(NCCOc1ccc(Cl)cn1)NCC1CCOCC1	-7%	0.93
O=C(NCc1ccccc1OC1CCC1)c1nc(=O)[nH][nH]1	-2%	0.38
O=C(CN1CCC(c2ccc(F)c(F)c2)CC1)N1CCOCC1	-8%	1.24

SMILES	% Inhibition	Z score
C[C@@]1(NC(=O)C2CC(F)(F)C2)CC=CCC1	-11%	2.24
O=C(NCC1(Cn2ccnc2)CC1)N1CCCC[C@@H]1CO	-5%	0.96
COC(=O)Cn1cc(CNC(=O)c2cc3c(C)cc(C)cc3[nH]2)nn1	-3%	0.42
Cc1noc(CN2CCC(N3CCN(c4cccc(C(F)(F)F)c4)CC3)CC2)n1	-2%	0.23
Cc1cc(C(=O)NCC[C@H]2CCOC2)c(=O)n(C)c1C	-5%	0.72
CC(C)Cc1cc(C(=O)O[C@H]2CCc3cccnc32)[nH]n1	-4%	0.45
CNC(=O)[C@@H]1C[C@H](Oc2ccccc2)CN1C1CCN(C(=O)COCCOC)CC1	1%	-0.19
Cc1nc([C@H](C)Nc2ccc3cc[nH]c3n2)cs1	2%	-0.41
CC1CC(C(=O)N2CCC(Cc3ccccc3)CC2)CCC1=O (stereo not drawn)	-12%	1.22
CC(=O)c1ccc(S(=O)(=O)NC(=O)c2cncc(N3CCOCC3)c2)cc1	-5%	0.63
CCCCOCC(=O)Nc1cc(C(C)(C)C)no1	-5%	0.97
COc1ccccc1[C@@H](CC(N)=O)c1c(O)n[nH]c1Cc1ccc2c(c1)CCO2	1%	-0.1
Cc1ccc(Cl)c2ccc(N3CCS(=O)(=O)CC3)nc12	-6%	0.85
COc1ccc(-c2nnc(C)o2)cc1NC(=O)c1ccc(=O)n(C)c1	-18%	2.02
CC(=O)N1CCc2cc(NS(=O)(=O)c3ccc4c(c3)OCCO4)ccc21	-1%	0.14
Cc1ccc(C)c(/N=C2\CCCN2C)c1C#N	29%	-3.28
CCc1nn(C)c(NC(=O)c2ccc(CN3CCNC(=O)[C@@H]3C)cc2)c1CC	-3%	0.38
CO[C@@H](CNS(=O)(=O)CC(C)(F)F)c1ccccc1Cl	-2%	0.35
Cc1ccc2nc(NC(=O)CCn3ccc(C)n3)sc2c1	5%	-0.95
CN(C)C1(CNC(=O)Nc2cc(-c3cc(F)cc(F)c3)nn2C)CC1	-9%	1.46
CC[C@](O)(CCCO)CNC(=O)c1cccc(N)n1	-9%	1.03
CCCCN=C(NCCc1ccc(F)cc1)N1CCC(O)CC1	0%	-0.03
COc1ccc(N2C(=O)[C@H]3C(c4cn(C)nc4C)=NO[C@H]3C2=O)cc1	-5%	0.6
CC(C)(C)c1nc(CN2CCN(C(=O)NC3CC3)CC2)cs1	-3%	0.32
CCOCCN1C[C@@](C)(Cc2ccc3c(c2)OCO3)CCC1=O	-18%	2.47
CN1CCCC(CNC(=O)Cc2cscn2)C1c1ccc(C(F)(F)F)cc1 (stereo not drawn)	-1%	0.15
COc1ccc2c(c1)[C@H](C)N(C(=O)c1cccc(-c3nc(C)nn3C)c1)CC2	-2%	0.29
